T1: RBFOX1 RRM (Homo sapiens, UniProt Q9NWB1 109-208)
T1 sequence: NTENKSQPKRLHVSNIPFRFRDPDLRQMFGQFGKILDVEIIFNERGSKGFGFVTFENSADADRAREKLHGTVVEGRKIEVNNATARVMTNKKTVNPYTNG

B1: GUUCAUA (DNA:RNA)
RNA: GGGAGACCGGAAUUCAGAUUGUCCGUUCAUAUUAAAUCCCGUCGUAGCCACCA
DNA 1: CAATCTGAATTCCGGTCTCCC
DNA 2: TGGTGGCTACGACGGGATT
B2: UAUGUCG (DNA:RNA)
RNA: B1 RNA with G25U, U26A, C28G, A29U, U30C, A31G
DNA 1: CAATCTGAATTCCGGTCTCCC
DNA 2: TGGTGGCTACGACGGGATT
B3: GGCUUAG (DNA:RNA)
RNA: B1 RNA with U26G, U27C, C28U, A29U, U30A, A31G
DNA 1: CAATCTGAATTCCGGTCTCCC
DNA 2: TGGTGGCTACGACGGGATT
B4: UCAAAAU (DNA:RNA)
RNA: B1 RNA with G25U, U26C, U27A, C28A, U30A, A31U
DNA 1: CAATCTGAATTCCGGTCTCCC
DNA 2: TGGTGGCTACGACGGGATT
B5: GAAAGUA (DNA:RNA)
RNA: B1 RNA with U26A, U27A, C28A, A29G
DNA 1: CAATCTGAATTCCGGTCTCCC
DNA 2: TGGTGGCTACGACGGGATT
B6: AUCCGGG (DNA:RNA)
RNA: B1 RNA with G25A, U27C, A29G, U30G, A31G
DNA 1: CAATCTGAATTCCGGTCTCCC
DNA 2: TGGTGGCTACGACGGGATT
B7: UGACCCC (DNA:RNA)
RNA: B1 RNA with G25U, U26G, U27A, A29C, U30C, A31C
DNA 1: CAATCTGAATTCCGGTCTCCC
DNA 2: TGGTGGCTACGACGGGATT
B8: UGGGUAA (DNA:RNA)
RNA: B1 RNA with G25U, U26G, U27G, C28G, A29U, U30A
DNA 1: CAATCTGAATTCCGGTCTCCC
DNA 2: TGGTGGCTACGACGGGATT
B9: CUAAGCC (DNA:RNA)
RNA: B1 RNA with G25C, U27A, C28A, A29G, U30C, A31C
DNA 1: CAATCTGAATTCCGGTCTCCC
DNA 2: TGGTGGCTACGACGGGATT
B10: CCAGAAG (DNA:RNA)
RNA: B1 RNA with G25C, U26C, U27A, C28G, U30A, A31G
DNA 1: CAATCTGAATTCCGGTCTCCC
DNA 2: TGGTGGCTACGACGGGATT
B11: CUCAAAA (DNA:RNA)
RNA: B1 RNA with G25C, U27C, C28A, U30A
DNA 1: CAATCTGAATTCCGGTCTCCC
DNA 2: TGGTGGCTACGACGGGATT
B12: CGACCGA (DNA:RNA)
RNA: B1 RNA with G25C, U26G, U27A, A29C, U30G
DNA 1: CAATCTGAATTCCGGTCTCCC
DNA 2: TGGTGGCTACGACGGGATT
B13: UAGGGUG (DNA:RNA)
RNA: B1 RNA with G25U, U26A, U27G, C28G, A29G, A31G
DNA 1: CAATCTGAATTCCGGTCTCCC
DNA 2: TGGTGGCTACGACGGGATT
B14: UACCCAC (DNA:RNA)
RNA: B1 RNA with G25U, U26A, U27C, A29C, U30A, A31C
DNA 1: CAATCTGAATTCCGGTCTCCC
DNA 2: TGGTGGCTACGACGGGATT
B15: UGGUUCU (DNA:RNA)
RNA: GGGAGACCGGAAUUCAGAUUGUCCUGGUUCUUUAAAUCCCGUCGUAGCCACCA
DNA 1: CAATCTGAATTCCGGTCTCCC
DNA 2: TGGTGGCTACGACGGGATT
B16: CAUAGAA (DNA:RNA)
RNA: B1 RNA with G25C, U26A, C28A, A29G, U30A
DNA 1: CAATCTGAATTCCGGTCTCCC
DNA 2: TGGTGGCTACGACGGGATT
B17: GAUAGCA (DNA:RNA)
RNA: B1 RNA with U26A, C28A, A29G, U30C
DNA 1: CAATCTGAATTCCGGTCTCCC
DNA 2: TGGTGGCTACGACGGGATT
B18: CUUAGAU (DNA:RNA)
RNA: B1 RNA with G25C, C28A, A29G, U30A, A31U
DNA 1: CAATCTGAATTCCGGTCTCCC
DNA 2: TGGTGGCTACGACGGGATT
B19: GGUGCCG (DNA:RNA)
RNA: B1 RNA with U26G, C28G, A29C, U30C, A31G
DNA 1: CAATCTGAATTCCGGTCTCCC
DNA 2: TGGTGGCTACGACGGGATT
B20: AAUCUGG (DNA:RNA)
RNA: B1 RNA with G25A, U26A, A29U, U30G, A31G
DNA 1: CAATCTGAATTCCGGTCTCCC
DNA 2: TGGTGGCTACGACGGGATT

Numbering of substitutions follows the chain as printed; changes in the protein carry UniProt numbers. The list shows a part of the results.

The target in this assay is T1, RBFOX1 RRM. The experiment in a line: EMSA; HiTS-Eq, 1 nM pool, 10 min; buffer printed only for the single-RNA assays: 10 mM Tris pH 7.5, 150 mM NaCl, 3.4 mM EDTA, 0.001% NP-40, 30 C. Particulars: tags: His6 N-terminal (pET28a); label: 5' 32P. In outline: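 Relative association constants, normalised to the cognate motif, were derived by comparing read counts of each RNA species with those of the control reaction. The RNA sequenced was the free fraction, separated by 8% native PAGE after a 10 min equilibration in 50 µL of 1 nM 5′-radiolabelled RNA (7 randomized nucleotides) with increasing concentrations of purified wild-type or mutant RbFox RRM.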
A general note: A gel shift assay detects complexes by their altered migration in electrophoresis.
For the molecule B1, the binding signal was 0.00309 KA relative to UGCAUGU.

For the molecule B2, the binding signal is 0.0233 KA relative to UGCAUGU.

Turning to B3, the binding signal was 0.00602 KA relative to UGCAUGU.

B4: the binding signal is 0.00169 KA relative to UGCAUGU.

B5: the binding signal was 0.00589 KA relative to UGCAUGU.

Turning to B6, the binding signal was 0.00181 KA relative to UGCAUGU.

Consider B7, for which the binding signal was 0.00755 KA relative to UGCAUGU.

For the molecule B8, the binding signal was 0.0233 KA relative to UGCAUGU.

For the molecule B9, the binding signal is 0.00473 KA relative to UGCAUGU.

B10: the binding signal is 0.00547 KA relative to UGCAUGU.

On to B11, for which the binding signal was 0.00184 KA relative to UGCAUGU.

Regarding B12, the binding signal is 0.0125 KA relative to UGCAUGU.

Take B13: the binding signal was 0.0191 KA relative to UGCAUGU.

Take B14: the binding signal was 0.00267 KA relative to UGCAUGU.

B15: the binding signal was 0.019 KA relative to UGCAUGU.

With B16, the binding signal is 0.00289 KA relative to UGCAUGU.

For the molecule B17, the binding signal is 0.0148 KA relative to UGCAUGU.

As to B18, the binding signal is 0.00985 KA relative to UGCAUGU.

For B19, the binding signal is 0.0233 KA relative to UGCAUGU.

With B20, the binding signal is 0.00873 KA relative to UGCAUGU.
